From PMC6919601, “Identification of Plasmodium dipeptidyl aminopeptidase allosteric inhibitors by high throughput screening” (PLoS ONE, 2019)
Screen size: about 110,000 compounds; about 230 (0.21%) showed an effect of 50% or more. This is one part of the list.

Biological target: DPAP1 (Plasmodium falciparum, UniProt Q8IIJ9)
Test: primary screen, percent inhibition; read by cleavage of a fluorogenic dipeptide substrate; higher = more effect of the substance
Design: species or system P. falciparum D10 trophozoite lysates; single well
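Further: 30 min substrate incubation versus DMSO and 10 µM JCP410 controls.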

Chain of DPAP1 (Q8IIJ9 whole entry, looked up): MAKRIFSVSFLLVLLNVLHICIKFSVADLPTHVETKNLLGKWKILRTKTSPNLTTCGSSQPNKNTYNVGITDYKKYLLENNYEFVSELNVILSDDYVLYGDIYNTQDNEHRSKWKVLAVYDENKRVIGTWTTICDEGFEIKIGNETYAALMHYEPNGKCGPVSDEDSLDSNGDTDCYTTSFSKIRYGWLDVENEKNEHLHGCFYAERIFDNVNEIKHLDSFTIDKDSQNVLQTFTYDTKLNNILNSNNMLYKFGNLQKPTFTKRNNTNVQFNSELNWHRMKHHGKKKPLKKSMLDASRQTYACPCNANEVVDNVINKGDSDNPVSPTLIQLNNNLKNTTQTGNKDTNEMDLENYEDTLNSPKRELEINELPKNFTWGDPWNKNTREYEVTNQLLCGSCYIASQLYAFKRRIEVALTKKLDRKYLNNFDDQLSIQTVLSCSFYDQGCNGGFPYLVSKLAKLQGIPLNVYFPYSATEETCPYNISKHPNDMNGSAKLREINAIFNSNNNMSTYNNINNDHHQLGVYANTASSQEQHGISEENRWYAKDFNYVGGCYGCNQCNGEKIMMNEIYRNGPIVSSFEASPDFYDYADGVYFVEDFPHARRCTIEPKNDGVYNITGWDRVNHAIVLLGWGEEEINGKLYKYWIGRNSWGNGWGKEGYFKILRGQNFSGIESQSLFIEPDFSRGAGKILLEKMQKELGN

Structure (SMILES) | % Inhibition @ 10 uM [%]
CCOC(=O)N1CCN(C2CCCCCCC2)CC1 | 3.48
CC(CNC(=O)CCn1c(=O)c2cccn2c2cccnc21)c1ccccc1 (stereo not drawn) | 3.1
CCOc1ccc2nc(NC(=O)c3ccc(OCC)c(Br)c3)sc2c1 | 6.11
O=C(Cc1ccc(Cl)cc1)n1cc(Cl)cn1 | -2.26
Cc1ccc(C2CC(C(F)F)n3ncc(C(=O)Nc4cnn(Cc5ccccc5C)c4)c3N2)cc1 (stereo not drawn) | 1.34
COc1ccc(CNC(=O)CCCn2nc(C)c3c(C)n(-c4ccc(C)cc4)nc3c2=O)cc1 | -4.19
c1cc2c[nH]nc2cc1NC1CCCCCC1 | -1.56
Cc1cc(C)n2nc(CNS(=O)(=O)c3ccc(CC(C)C)cc3)nc2n1 | -2.17
O=C1CC(N2CCN(Cc3ccc4c(c3)OCO4)CC2)C(=O)N1c1ccccc1 (stereo not drawn) | -4.31
COCCN1C(=O)/C(=C/c2ccc(N3CCOCC3)c(F)c2)S/C1=N\c1ccccc1 | -8.09
Cc1ccc(C)n1-c1n[nH]c(S)n1 | 34.5
Cc1c(Cl)cccc1NC(=O)c1ccc([N+](=O)[O-])cc1 | 1.35
Cc1ccc(S(=O)(=O)N(CC(=O)Nc2cccnc2)c2ccc(C)c(Cl)c2)cc1 | -1.33
Cc1ccc(C2=N/C(=C/N3CCOCC3)C(=O)O2)cc1 | 1.78
CCCC1C(=O)CC(C#N)(C#N)C(C#N)(C#N)C1c1ccccc1 (stereo not drawn) | -3.04
CC(C)SCCCCOc1ccc([N+](=O)[O-])cc1 | 0.634
CCOc1cc(C2C(C(=O)OC)=CN(C)C=C2C(=O)OC)cc(Br)c1OCC | -1.48
CC1CC(C)(C)NC(=S)N1CC(=O)NCCc1ccc(S(N)(=O)=O)cc1 (stereo not drawn) | -0.631
CN(C(=O)Nc1noc2c1COc1ccccc1-2)C1CCCCC1 | 3.04
Cc1cc(C)c2sc(N(CCCN(C)C)C(=O)c3ccco3)nc2c1 | 2.99
N=C1/C(=C/c2cn(Cc3ccc4c(c3)OCO4)c3ccccc23)C(=O)N=C2SC=CN12 | -1.17
OC1=C2C(=Nc3nc4ccccc4n3C2c2cc(Br)ccc2F)CCC1 (stereo not drawn) | 0.0842
CCCCN(CCNc1ncnc2onc(C)c12)Cc1ccco1 | 4.58
CN(C)c1cc(NCc2ccccc2)c([N+](=O)[O-])c2nonc12 | 1.04
CCCc1cc(O)n2nc(NCc3ccc(F)cc3)nc2n1 | 4.18
CSc1ccc(C2C(C#N)=C(N)Oc3[nH]nc(C)c32)cc1 (stereo not drawn) | 0.673

Structure (SMILES) | % Inhibition @ 10 uM [%]
CCCC1=NN(c2nc3ccccc3s2)C(=O)/C1=C(/C)N1CCOCC1 | 14.1
COc1cccc(-n2nnc(-c3nsc(NC(=O)c4cccs4)n3)c2C)c1 | -11.2
COC(=O)c1oc2ccccc2c1NC(=O)c1ccccc1 | 9.19
CC(C)C(Nc1ccc(C(F)(F)F)cc1[N+](=O)[O-])C(=O)O (stereo not drawn) | 1.21
Cc1ccc(-c2c(N3CCOCC3)c(=O)c2=O)cc1 | -0.825
O=C(NC1CCCCC1)c1nnc(-c2cccc(Cl)c2)o1 | -2.23
CCC(CC)=C(C#N)C(=O)NC1CCCCC1 | 2.68
COc1ccc(CNC(=O)c2sc3nc(-c4cccs4)ccc3c2N)cc1OC | 6.63
O=c1oc2ccc(Br)cc2cc1-c1nc(-c2ccc([N+](=O)[O-])cc2)cs1 | -2.42
O=C(O)c1ccc(-c2nc3cc(Cl)c(F)cc3[nH]2)cc1 | 3.49
O=C(O)c1cccc(NC(=O)c2ccc([N+](=O)[O-])cc2)c1 | 1.54
Cc1ccccc1CNC(=O)CN(c1ccc(F)cc1)S(=O)(=O)c1ccc2c(c1)OCCO2 | 2.63
CCC(=O)n1nc(-c2ccccc2)nc1NCc1ccc(F)cc1 | 7.02
O=C(NCc1ccco1)C1CCN(S(=O)(=O)c2ccc3[nH]c4c(c3c2)CCCCC4)CC1 | 3.7
Cc1cc(C(=O)C(=O)NCc2ccco2)c(C)n1-c1cccc(Cl)c1 | 0.655
CNC(=O)CCc1nc(-c2cccc(C)c2)no1 | -0.45
O=C1C(=Cc2cccc3ccccc23)C(=O)c2ccccc21 | -2.32
CC(C)(C)C1CCC2(CC1)N=C(c1ccccc1)C(=S)N2 (stereo not drawn) | 0.559
Cc1c(Cl)cccc1NC(=O)c1ccco1 | 3.25
Cc1ccc2nc(-c3ccc(NC(=O)C4CC4)cc3)sc2c1 | -4.14
Cc1cc(C(=O)N2CCN(C(c3ccccc3)c3ccccc3)CC2)no1 | -5.09
Cc1c(C(=O)O)cccc1-c1ccc(/C=C2\SC(=O)N(CC(=O)N3CCOCC3)C2=O)o1 | -9.68
O=C(O)CCCC(=O)NCCCc1ccccc1 | -8.48
O=Cc1ccc(-c2ccc(Cl)cc2)o1 | 8.97
Cc1oc(C(C)(C)C)cc1C(=O)NCCNC(=O)c1cc(C(C)(C)C)oc1C | -3.19
Cc1ccc(C[n+]2c3n(c4ccccc42)CC(O)CS3)cc1 (stereo not drawn) | 3.66

Structure (SMILES) | % Inhibition @ 10 uM [%]
Cc1noc(NS(=O)(=O)c2ccc(NC(=O)NC3CCCCC3)cc2)c1C | -0.511
O=C(C1CC1c1ccccc1)N1CCN(c2ccccc2)CC1 (stereo not drawn) | -7.46
Cc1ccc(NC(=O)Cn2c(Br)nc3c2c(=O)n(C)c(=O)n3C)cc1 | 2.95
COC(=O)C1=CN(C(C)C)C=C(C(=O)OC)C1c1cccc(OC)c1OC | 0.219
CCn1ncc(Br)c1C(=O)NCc1ccc(OC)c(OC)c1 | 1.76
CC1CCc2[nH]c3ccc(C(=O)O)cc3c2C1 (stereo not drawn) | 0.193
CCOC(=O)CC(=O)c1c[nH]c2ccccc12 | 4.73
CCOC(=O)N1CCN(C(=O)Cn2nc(-c3ccc(C)cc3)ccc2=O)CC1 | 3.79
O=C1/C(=C\c2ccc(OCC(=O)N3CCOCC3)cc2)Sc2ccccc21 | 2.08
COc1ccc(Nc2cc(C)nc3c(C)c(C)cc(N)c23)cc1 | -0.312
CCOc1cc(CNC2CC(C)(C)NC(C)(C)C2)ccc1OC | 0.9
COC(=O)C1=C(C)OC(N)=C(C#N)C1c1ccc(F)cc1 (stereo not drawn) | 0.912
Cc1nc2c3cccnc3nn2c(C)c1CCC(=O)N1CCCCCC1 | -1.7
O=C(c1oc(=O)c2ccccc2c1-c1ccccc1)N1CCC(O)CC1 | -2.88
Cc1ccn(-c2cccc(-n3ccc(C)n3)n2)n1 | -3.25
O=C(O)c1ccccc1NC(=O)C1C2CCC(O2)C1C(=O)O (stereo not drawn) | -5.47
O=C(CSc1nnc2c(n1)[nH]c1ccccc12)Nc1nnc(-c2ccccc2)s1 | 5.05
Cc1ccc(-c2cc(C(F)(F)F)n3nc(C(=O)Nc4cccnc4Cl)cc3n2)cc1 | -2.62
COc1cccc(C2CC(O)=C/C(=N/CCc3ccc(OC)c(OC)c3)C2)c1 (stereo not drawn) | -2.63
O=C(O)c1cc(-c2ccc(F)cc2)nc2ccccc12 | 5.03
O=C1NN=C(c2ccccc2O)C1[N+](=O)[O-] (stereo not drawn) | -0.856
C=CCNC(=O)CCCc1nc(-c2ccccc2OC)no1 | 0.347
CC1=NC(C(F)(F)F)(C(F)(F)F)C2=C(CC(C)(C)CC2=O)N1CC1CCCO1 (stereo not drawn) | -9.16
Cc1onc(-c2ccccc2Cl)c1C(=O)NC(C)(C)C | -3.87
COc1cc(C2CC(=O)N3CN(C)CSC3=C2C#N)cc(OC)c1OC (stereo not drawn) | 3.77
CC(=O)N/C(=C\c1ccccc1)C(=O)Nc1cc(Cl)cc(Cl)c1 | -3.26

Structure (SMILES) | % Inhibition @ 10 uM [%]
CCN1CCN(C(=O)c2ccc3c(c2)c(C)c(C)n3Cc2ccccc2)CC1 | -7.04
CCOC(=O)Nc1cc(NC(=O)OCC)c(C)nc1C | -10.4
N#C/C(=C\c1ccc(-c2cccc(Cl)c2)o1)C(=O)NCc1ccccc1 | 5.98
CCN1CCCC1CNC(=O)c1ccc(CS(=O)(=O)c2c(Cl)cccc2Cl)o1 (stereo not drawn) | -0.971
O=C1CC(c2ccccc2)CC(=O)C1=CNc1ccccc1Cl (stereo not drawn) | -4.75
O=C(NCC1COc2ccccc2O1)c1cc2c(s1)-c1ccccc1OC2 (stereo not drawn) | 1.89
Brc1ccc(OCCCCN2CCOCC2)cc1 | 0.392
COc1ccc(CN2CCc3c([nH]c4ccccc34)C2)cc1OC | 3.03
O=C(c1cc(-c2ccc(Cl)cc2Cl)nc2ccccc12)N1CCOCC1 | 2.65
CCc1ccc(C(=O)COC(=O)c2cnccn2)cc1 | -10.8
Cc1ccc(-c2cc(C(=O)N3CCOCC3)c3cccc(C)c3n2)cc1 | -3.33
COCCn1c(SCc2ccc(Cl)cc2)nc2c1c(=O)[nH]c(=O)n2C | -1.37
Cc1cc(N2CCN(C)CC2)nc2ccccc12 | -7.02
CCCCSC1=C(C#N)C(=O)NC(c2ccc(OC)cc2)S1 (stereo not drawn) | 8.15
COc1cc(-c2nnc3sc(-c4cc5ccccc5o4)nn23)cc(OC)c1OC | 4.47
O=C(O)CCCC(=O)Nc1cccc(Cl)c1 | -0.807
O=C1CCSc2c1cccc2C(=O)NCCc1ccc(Cl)cc1 | -9.67
O=C(Nc1ccc(S(=O)(=O)N2CCCCC2)cc1)c1sc2ccccc2c1Cl | -8.38
C=C(Br)C[C@H](NC(=O)OCc1ccccc1)C(=O)NCC#N | -6.46
O=C(CN(c1ccccc1)S(=O)(=O)c1ccccc1)NC1CC2CCC1C2 (stereo not drawn) | -2.03
Cc1ccc2c(c1)cc1c(=O)n(CC(=O)NCCC3=CCCCC3)nc(C)n12 | 4.84
CCOC(=O)/C(=N\OC)c1cn2cc(Br)ccc2n1 | 2.09
Cc1cc(NC(=O)CN2CCN(c3ccccc3C)CC2)no1 | -3.37
CC(C)(C)C1CCC(N2CCN(CCOCCO)CC2)CC1 (stereo not drawn) | -0.0908
